# Results: the supplement of paper PMC12217912
# The other results are listed elsewhere or left out. The full chains were built here from the parent and the listed change. Values near 0.05 are background.
# B1: TEV protease; numbered along this chain (parent)
# chain: MGESLFKGPRDYNPISSSICHLTNESDGHTTSLYGIGFGPFIITNKHLFRRNNGTLVVQSLHGVFKVKDTTTLQQHLVDGRDMIIIRMPKDFPPFPQKLKFREPQREERICLVTTNFQTKSMSSMVSDTSCTFPSGDGIFWKHWIQTKDGQCGSPLVSTRDGFIVGIHSASNFTNTNNYFTSVPKNFMELLTNQEAQQWVSGWRLNADSVLWGGHKVFMVKPEEPFQPVKEATQL
# Variants of: B1
# Experiment: raw area under fraction-flipped curve 0-4 h after induction (AUC4h, not background-subtracted), DNA-recorder readout of cleavage of the substrate (dimensionless); higher = more cleavage of the substrate by the protease variant
# Conditions: temperature: 34 °C; time window: 0-4 h after rhamnose induction
# Experimental: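 In vivo DNA recorder in E. coli TOP10(DE3) ΔrhaA at 34 °C. Each TEVp single-site mutant (parent TEVp 0) is paired with a single-site variant of the 7-mer TEVs (canonical ENLYFQ|S). The substrate sits between flexible linkers in a Bxb1-sfGFP-TEVs-SsrA fusion, so cleavage stabilises Bxb1 and speeds flipping of a recombination array, read by NGS. The value is the raw area under the fraction-flipped curve over 0-4 h after rhamnose induction (AUC4h), with ≥20 reads per time point. It is not background-subtracted; inactive controls average about 0.047.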
# 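Note: Bxb1 expression induced with 0.2% (w/v) L-rhamnose at OD600 near 0.5, cultures sampled hourly, flipped fraction per protease–substrate barcode pair counted by paired-end Illumina sequencing.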
Variant,area with substrate ENAYFQS,area with substrate ENCYFQS,area with substrate ENDYFQS,area with substrate ENEYFQS,area with substrate ENFYFQS,area with substrate ENGYFQS,area with substrate ENHYFQS,area with substrate ENIYFQS,area with substrate ENKYFQS,area with substrate ENNYFQS,area with substrate ENPYFQS,area with substrate ENQYFQS,area with substrate ENRYFQS,area with substrate ENSYFQS,area with substrate ENTYFQS,area with substrate ENVYFQS,area with substrate ENMYFQS,area with substrate ENYYFQS,area with substrate ENWYFQS
MGESLFKGPRDYNPISSSICHLTNESDGHTTSLYGIGFGPFIITNKHLFRRNNGTLVVQSLHGVFKVKDTTTLQQHLVDGRDMIIIRMPKDFPPFPQKLKFREPQREERICLVTTNFQTKSMSSMVSDTSCTFPSGDGIFWKHWIQTKDGQCGSPLVSTRDGFIVGIHSASNFTNTNNYFTSVPKNFMELLTNQEAQQWVSGWRLNADSVLWGGHKVFMVKPEEPFNPVKEATQL [Q227N],0.0845,0.0863,0.0618,0.0496,0.082,0.06,0.0572,0.129,0.0536,0.0694,0.107,0.0561,0.047,0.0646,0.0525,0.0847,,,
MGESLFKGPRDYNPISSSICHLTNESDGHTTSLYGIGFGPFIITNKHLFRRNNGTLVVQSLHGVFKVKDTTTLQQHLVDGRDMIIIRMPKDFPPFPQKLKFREPQREERICLVTTNFQTKSMSSMVSDTSCTFPSGDGIFWKHWIQTKDGQCGSPLVSTRDGFIVGIHSASNFTNTNNYFTSVPKNFMELLTNQEAQQWVSGWRLNADSVLWGGHKVFMVKPEEPFYPVKEATQL [Q227Y],0.0504,0.059,0.0756,,,0.0577,0.0662,,,0.0596,,0.0634,0.0518,0.0632,0.049,0.0774,0.0717,0.0583,
MGESLFKGPRDYNPISSSICHLTNESDGHTTSLYGIGFGPFIITNKHLFRRNNGTLVVQSLHGVFKVKDTTTLQQHLVDGRDMIIIRMPKDFPPFPQKLKFREPQREERICLVTTNFQTKSMSSMVSDTSCTFPSGDGIFWKHWIQTKDGQCGSPLVSTRDGFIVGIHSASNFTNTNNYFTSVPKNFMELLTNQEAQQWVSGWRLNADSVLWGGHKVFMVKPEEPFQAVKEATQL [P228A],0.0489,,0.0665,0.0608,,,,,,,,0.0622,0.0356,0.043,,0.0788,,,
MGESLFKGPRDYNPISSSICHLTNESDGHTTSLYGIGFGPFIITNKHLFRRNNGTLVVQSLHGVFKVKDTTTLQQHLVDGRDMIIIRMPKDFPPFPQKLKFREPQREERICLVTTNFQTKSMSSMVSDTSCTFPSGDGIFWKHWIQTKDGQCGSPLVSTRDGFIVGIHSASNFTNTNNYFTSVPKNFMELLTNQEAQQWVSGWRLNADSVLWGGHKVFMVKPEEPFQCVKEATQL [P228C],0.091,0.0725,0.0562,0.0481,0.0665,0.0377,0.0601,,0.0634,0.061,0.0538,0.0567,,0.0644,0.0668,0.0898,0.0738,0.0428,0.0582
MGESLFKGPRDYNPISSSICHLTNESDGHTTSLYGIGFGPFIITNKHLFRRNNGTLVVQSLHGVFKVKDTTTLQQHLVDGRDMIIIRMPKDFPPFPQKLKFREPQREERICLVTTNFQTKSMSSMVSDTSCTFPSGDGIFWKHWIQTKDGQCGSPLVSTRDGFIVGIHSASNFTNTNNYFTSVPKNFMELLTNQEAQQWVSGWRLNADSVLWGGHKVFMVKPEEPFQDVKEATQL [P228D],0.0564,0.078,0.0859,0.0579,0.0618,0.0531,0.0537,,,,,0.0813,,0.072,,,,,
MGESLFKGPRDYNPISSSICHLTNESDGHTTSLYGIGFGPFIITNKHLFRRNNGTLVVQSLHGVFKVKDTTTLQQHLVDGRDMIIIRMPKDFPPFPQKLKFREPQREERICLVTTNFQTKSMSSMVSDTSCTFPSGDGIFWKHWIQTKDGQCGSPLVSTRDGFIVGIHSASNFTNTNNYFTSVPKNFMELLTNQEAQQWVSGWRLNADSVLWGGHKVFMVKPEEPFQEVKEATQL [P228E],0.0596,0.0652,,0.0191,,,0.0601,,,,0.0568,0.055,,0.0634,0.0644,0.0778,,,
MGESLFKGPRDYNPISSSICHLTNESDGHTTSLYGIGFGPFIITNKHLFRRNNGTLVVQSLHGVFKVKDTTTLQQHLVDGRDMIIIRMPKDFPPFPQKLKFREPQREERICLVTTNFQTKSMSSMVSDTSCTFPSGDGIFWKHWIQTKDGQCGSPLVSTRDGFIVGIHSASNFTNTNNYFTSVPKNFMELLTNQEAQQWVSGWRLNADSVLWGGHKVFMVKPEEPFQPVKPATQL [E231P],0.0615,,0.0557,0.0563,,,0.0565,0.115,,,,0.0681,,0.0595,0.0762,0.0772,,,
MGESLFKGPRDYNPISSSICHLTNESDGHTTSLYGIGFGPFIITNKHLFRRNNGTLVVQSLHGVFKVKDTTTLQQHLVDGRDMIIIRMPKDFPPFPQKLKFREPQREERICLVTTNFQTKSMSSMVSDTSCTFPSGDGIFWKHWIQTKDGQCGSPLVSTRDGFIVGIHSASNFTNTNNYFTSVPKNFMELLTNQEAQQWVSGWRLNADSVLWGGHKVFMVKPEEPFQPVKRATQL [E231R],0.051,,0.0572,0.048,0.0667,0.0466,0.0722,,,0.0484,,0.0623,0.0575,0.065,,0.0784,0.1,0.0689,
